# From the supplement of paper PMC3334620
# The full ranking holds about 33,000 sequences; the median of “E-score (-0.5 to 0.5)” is about -0.04, and the highest 2% start at about 0.36. This is one part of the list.
# Molecular target: T1, Hmlalpha2 (UniProt P0CY09)
# T1 sequence: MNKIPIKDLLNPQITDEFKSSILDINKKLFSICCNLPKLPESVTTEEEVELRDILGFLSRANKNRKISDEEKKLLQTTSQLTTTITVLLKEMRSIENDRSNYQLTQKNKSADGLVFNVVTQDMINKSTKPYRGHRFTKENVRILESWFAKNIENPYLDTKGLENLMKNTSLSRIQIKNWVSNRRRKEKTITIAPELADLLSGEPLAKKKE
# Assay: PBM E-score (8-mer binding enrichment) (E-score (-0.5 to 0.5)); higher = stronger / more preferred TF binding; most listed sequences are background and not binding sites
# Conditions: protein concentration: 200 nM; construct: GST-full length
# Description: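 Universal 'all 10-mer' protein binding microarrays (Agilent AMADID 015681) probed with GST-tagged S. cerevisiae TFs (full-length or DBD) made by in vitro transcription/translation (PURExpress), about 100-200 nM. Bound TF was detected with fluorescent anti-GST. Each ungapped 8-mer (which stands for itself and its reverse complement) is scored by the PBM enrichment score (E-score), a modified Wilcoxon-Mann-Whitney statistic from -0.5 to +0.5, computed with the Universal PBM Analysis Suite. Scale: above 0.35 generally sequence-specific binding.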
row,Sequence,PBM E-score
1,ACAGGTCC,0.0173
2,AGCTTGGA,-0.292
3,AATATCAA,0.0209
4,AACGTCCT,-0.0366
5,AATTGCGA,-0.153
6,CGGTAGAC,-0.0181
7,TAACACAA,0.43
8,AGACAAGA,0.081
9,GTACTCTA,0.112
10,GCTGCCGA,-0.273
11,CCGCCTAA,-0.221
12,AGTAGGTA,0.00861
13,ACAACGCT,0.166
14,GAACACTC,0.0939
15,CTTTCGCC,-0.236
16,AAGAGTTC,-0.202
17,GAAGATTC,0.0129
18,GATCGAAA,0.0287
19,GAAAGTTC,-0.218
20,ATAAGGTA,-0.176
21,TCCTTCGA,-0.178
22,GTAAAGCA,0.348
23,ATAAATAC,0.258
24,CCGGGCCA,-0.365
25,GACCCGTA,-0.0922

row,Sequence,PBM E-score
1,CTTGGTTA,-0.0282
2,CTACTAAA,-0.0704
3,CTGAGTGC,-0.148
4,GCGGGCGA,-0.156
5,CGAAACGA,-0.0669
6,AAGTTTTG,0.07
7,CAGTCGGA,-0.152
8,ATAGATGC,-0.151
9,AGATCTAC,0.117
10,TATGATGA,-0.00678
11,GTCAATAA,0.133
12,ACCTTATG,-0.0122
13,CGCTACAA,0.0292
14,CGGAGATC,-0.294
15,CAACTCTA,-0.0987
16,AATGCTAG,-0.0249
17,ATGTGGCA,-0.102
18,AGTTCGCC,-0.247
19,CGGACGGC,-0.134
20,AAGCGATA,-0.0673
21,AAGTAATG,0.196
22,CGATTGCG,-0.0285
23,CCTTTACC,-0.204
24,CTGCGCCC,-0.358
25,ACTTGATA,0.122

row,Sequence,PBM E-score
1,CTCACAGA,-0.0179
2,GTTATAAA,0.309
3,ATGTAGTG,0.332
4,AGTTGCAG,-0.198
5,AAGACTTG,0.0903
6,GTTAGTAA,0.221
7,AGTGGTGA,-0.163
8,AGCCATAG,-0.0793
9,ACAAAACA,0.306
10,CCGGACGC,0.0237
11,CTTCCCCC,-0.349
12,ATGCATAC,0.12
13,ATGAAAGA,-0.0107
14,CATGCCAA,0.138
15,TTACTCAA,0.271
16,AACTCCCG,-0.103
17,ACTCGGCC,-0.00218
18,GAGCCATC,-0.241
19,CCCTCCCG,-0.356
20,CCACGAAA,-0.129
21,TGGGCAAA,-0.148
22,CGACTCCG,-0.352
23,ACGCGTTC,0.284
24,AAATAATC,0.187
25,CTAAAATA,-0.0247

row,Sequence,PBM E-score
1,AAAGCGCA,-0.169
2,AGTCCAAA,-0.0805
3,ATTGTTGC,0.316
4,ACTTCAAT,0.0693
5,CTGGCGTC,-0.104
6,CACCCGAC,-0.0805
7,AAGCGCCA,-0.191
8,CCTTTTCA,-0.122
9,ATTCCCTA,-0.0424
10,AATAGTCT,-0.0416
11,TCGCAGAA,-0.166
12,AGGCCACT,-0.181
13,AACTGCCC,-0.176
14,CCCCAGCA,-0.176
15,GCAGTTGA,-0.157
16,ATGTCGGC,0.0863
17,TACCAAGA,0.0705
18,ACAGTTTC,0.073
19,CCAAAACG,0.0431
20,TACACCAA,0.155
21,AAGAGCCC,-0.212
22,CCACAGGA,-0.161
23,TATTATAA,0.176
24,ACGTACAC,0.333
25,AGATGTCA,0.11

row,Sequence,PBM E-score
1,ACGCGCGT,0.343
2,AAAGGGCT,-0.174
3,AGCCTCGG,-0.276
4,TACTGAAA,0.0807
5,AGACATTG,-0.103
6,ACGGAGTA,-0.0455
7,AACCAGTT,0.158
8,AGCGCCGG,-0.299
9,GGCTAAGA,-0.248
10,CGTACACC,0.0642
11,GCCCCGAC,-0.247
12,GGTTATGA,0.0401
13,AAGCTCCC,-0.233
14,CAGGCTCA,-0.07
15,GGTGATCA,-0.103
16,TGTGGGAA,0.00853
17,CCGACCTC,-0.195
18,AATCATTG,0.103
19,CTCAGACA,-0.0237
20,AGCCTGAT,0.012
21,GGCGTCGA,-0.0196
22,ATCGTCCA,-0.237
23,ATACGCAC,0.297
24,ACTAATGC,0.0346
25,AAGAACTG,-0.178

row,Sequence,PBM E-score
1,ACGCCGTC,0.0115
2,CCCCACGG,-0.224
3,GGATTTAC,0.279
4,CTCAGATC,-0.171
5,GAAGGTAA,0.0918
6,GAATCTCA,-0.142
7,CTCTTCTA,-0.103
8,ACGTGCGG,-0.132
9,ATATCCTA,0.0663
10,GAGAAGGA,-0.232
11,CACTATAG,-0.0636
12,CCACGACC,-0.0888
13,GCTACATA,0.255
14,AGCTACTC,-0.068
15,AGCTCGGC,-0.0754
16,AAAATGGG,-0.186
17,CACATTAC,0.375
18,CGGTCATC,-0.204
19,AGCCACTA,-0.207
20,CGTGCAAA,0.172
21,CCAGATCC,-0.355
22,GGCAAACA,0.0111
23,ACTAATTG,-0.0219
24,ATATGAGA,-0.0168
25,CCCATTAG,-0.276

row,Sequence,PBM E-score
1,GAGAGTGC,-0.0884
2,ACGTCGAG,0.0652
3,GAACGTGC,-0.0535
4,CGTAGACG,0.0427
5,CGACGTAC,0.234
6,CGCCCTAC,-0.0898
7,AACAACTC,0.0384
8,GCGTGTAA,0.486
9,GGGCACAA,-0.252
10,ACGGTCCG,-0.182
11,GTCGAAGA,0.0307
12,GGGAGAGA,-0.33
13,CTCTAGAA,-0.166
14,AGCTTTAG,-0.075
15,CCTTGGGC,-0.362
16,TCATATAA,0.173
17,GTACATCA,0.288
18,CCACCAGA,-0.076
19,TAAATTCA,0.0489
20,AGCTGCCT,-0.324
21,ATCGAATA,0.0551
22,TAAGCTGA,0.0917
